# From the supplement of paper PMC12217912
# Some of the results follow. The full chains were built here from the parent and the listed change. Inactive controls read about 0.05.
# B1: TEV protease; numbered along this chain (parent)
# chain: MGESLFKGPRDYNPISSSICHLTNESDGHTTSLYGIGFGPFIITNKHLFRRNNGTLVVQSLHGVFKVKDTTTLQQHLVDGRDMIIIRMPKDFPPFPQKLKFREPQREERICLVTTNFQTKSMSSMVSDTSCTFPSGDGIFWKHWIQTKDGQCGSPLVSTRDGFIVGIHSASNFTNTNNYFTSVPKNFMELLTNQEAQQWVSGWRLNADSVLWGGHKVFMVKPEEPFQPVKEATQL
# Variants of: B1
# Experiment: raw area under fraction-flipped curve 0-4 h after induction (AUC4h, not background-subtracted), DNA-recorder readout of cleavage of the substrate (dimensionless); higher = more cleavage of the substrate by the protease variant
# Conditions: temperature: 34 °C; time window: 0-4 h after rhamnose induction
# Method: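 In vivo DNA recorder in E. coli TOP10(DE3) ΔrhaA at 34 °C. Each TEVp single-site mutant (parent TEVp 0) is paired with a single-site variant of the 7-mer TEVs (canonical ENLYFQ|S). The substrate sits between flexible linkers in a Bxb1-sfGFP-TEVs-SsrA fusion, so cleavage stabilises Bxb1 and speeds flipping of a recombination array, read by NGS. The value is the raw area under the fraction-flipped curve over 0-4 h after rhamnose induction (AUC4h), with ≥20 reads per time point. It is not background-subtracted; inactive controls average about 0.047.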
# 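Note: Bxb1 expression induced with 0.2% (w/v) L-rhamnose at OD600 near 0.5, cultures sampled hourly, flipped fraction per protease–substrate barcode pair counted by paired-end Illumina sequencing.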
Variant,area with substrate ENLDFQS,area with substrate ENLEFQS,area with substrate ENLFFQS,area with substrate ENLKFQS,area with substrate ENLRFQS,area with substrate ENLWFQS,area with substrate ENLGFQS,area with substrate ENLHFQS,area with substrate ENLLFQS,area with substrate ENLNFQS
I15R,0.0352,0.0527,0.0983,0.086,0.0705,0.029,,,,
L61Y,0.0634,0.0737,0.0875,0.0586,0.0512,,0.0716,0.0696,0.0838,0.0418
F38S,0.0472,,0.0649,0.0702,0.0629,0.0541,0.076,0.052,,0.0669
S158C,0.0604,0.0815,0.0671,,,0.0649,,0.0679,0.0623,0.0571
R51E,0.0628,0.0753,0.0721,0.0731,0.0108,,0.0752,0.0624,,0.0714
R51V,0.0568,0.071,0.1,0.0653,0.0696,0.0483,0.0508,0.062,0.0847,0.0285
T71S,0.0565,,,,,0.0681,,,,0.0648
T72I,0.0663,0.0804,,,,,,0.0386,,0.0667
T72L,0.056,,,0.093,,0.066,,,,
G166Y,0.0663,,0.0487,0.0538,0.0418,,0.0608,,,0.0343
F117Y,0.0604,0.054,0.083,0.0741,,,,,0.0649,
F117T,0.0619,,,0.0707,0.0778,,0.0742,,,
K90T,0.0604,0.0568,0.0863,,0.0719,0.0758,,0.0637,0.0833,0.068
G54P,0.0363,0.0504,0.052,,0.0573,,,,,0.0654
S154E,0.0599,,,,0.0749,0.0487,0.06,0.054,,0.0466
I84M,0.0637,0.0629,0.086,0.086,0.0523,,,0.0682,0.0635,0.063
D69A,0.0513,,0.0781,0.0796,,,,,,
G153D,0.0787,,0.0513,,0.0612,0.0401,0.0357,0.0519,,0.0612
I86H,0.0363,,0.0442,,,,,0.0462,,0.05
R102F,0.057,,0.0297,,,0.0661,,0.0435,0.0471,0.0406

# Same assay, conditions: temperature: 34 °C; time window: 0-4 h after rhamnose induction
Variant,area with substrate ENLPFQS,area with substrate ENLSFQS,area with substrate ENLIFQS,area with substrate ENLMFQS,area with substrate ENLQFQS,area with substrate ENLTFQS,area with substrate ENLVFQS
L61Y,0.0576,0.081,,,,,
F38S,0.0725,0.0523,0.0632,0.0651,0.072,0.053,
S158C,0.0554,0.0599,0.0751,,,,
R51E,,0.0716,,,,0.0765,0.0869
R51V,,0.0706,,0.0688,0.0605,,
T71S,,0.0731,,,,,
T72I,,0.0717,0.0898,,,,0.081
T72L,,0.0322,,,,0.0663,
G166Y,0.0472,0.0535,,,,,
F117Y,0.0692,0.04,,0.0734,0.0792,,
K90T,0.0482,0.0706,,,,,
S154E,0.0634,0.0417,0.0632,,,,
I84M,0.0673,,,,0.0683,,
D69A,,0.0738,,,,,
G153D,0.0646,0.0498,,,,0.0396,0.0593
I86H,0.0367,0.0406,,,,,
R102F,0.0339,0.0288,0.0534,0.0436,0.0354,,0.0477
